# Reference: PubChem BioAssay AID463173 (ICCB-Longwood Screening Facility, Harvard Medical School, 2010)
# Out of some 52,000 compounds screened, about 4,300 (8.3%) were called active. Cut-off read from the data, not from the text of the source: active = survival mostly below about 52% (no sharp cut-off); inactive = mostly above about 56%. The list shows a part of the results.
# System: DeltatarO mutant
# Test: S. aureus survival, RN4220 and DeltatarO strains – OD600, teichoic acid synthesis inhibitors, primary screen (AID 463173)
# Settings: S. aureus RN4220 wild type/DeltatarO growth, OD600, 18 h, hits give low values, screened at 18.75 µg/mL (by protocol)
row,Structure (SMILES),survival
1,O=C1C2C(C(=O)N1C13CC4CC(CC(C4)C1)C3)C1C=CC2C12CC2 (stereo unspecified),inactive: 78%
2,CC(CN1CCCCC1)OC(=O)c1ccc2c(c1)OCO2 (stereo unspecified),inactive: 98%
3,CCCCN(CC)CCNC(=O)c1cc2c(=O)n(CC)c3ccccc3c2s1,inactive: 87%
4,CCCCNc1nc2ccccc2c2nc(-c3ccccc3)nn12,active: -1%
5,Cc1ccccc1NC(=O)c1oc2c(c1C)-c1nn(Cc3cccc(Cl)c3)cc1CC2,active: 35%
6,COc1ccc(CNC(=O)CS(=O)Cc2nc(-c3cccc(C)c3)oc2C)cc1 (stereo unspecified),inactive: 75%
7,COc1cc(CNCCSc2nnnn2C)cc(Cl)c1OCc1ccccc1,active: 44%
8,Fc1ccccc1N1CCN(c2nccn3nc(-c4ccc(Br)cc4)cc23)CC1,inactive: 72%
9,CCn1c(=O)cc(OCC(=O)N(C)c2cc(Cl)ccc2C)c2ccccc21,active: 55%
10,O=C(NCCO)c1nc2ccccc2s1,inactive: 73%
11,COC(=O)c1ccccc1NC(=O)N1CCC(N2CCN(Cc3ccc(F)cc3)C(=O)C2=O)CC1,inactive: 75%
12,CC(C)(C)C1CCc2nc(NC(=O)Cc3ccccc3)sc2C1 (stereo unspecified),active: 19%
13,O=C(NCc1ccc(F)cc1)C1(c2cccs2)CCOCC1,inactive: 102%
14,COc1cc(Nc2nc3c(S(=O)(=O)c4ccc(C)c(C)c4)nnn3c3ccsc23)cc(OC)c1,inactive: 49%
15,CCOC(=O)c1c(NC(=O)C2c3ccccc3Oc3ccccc32)sc(C)c1CC,active: 24%
16,CCOc1ccc(CCNC(=O)c2nn(C)c3c2CSc2ccccc2-3)cc1,inactive: 75%
17,CCOc1ccccc1CNC(=O)CCCn1ccc2cc(S(=O)(=O)N3CCCC3)ccc21,inactive: 95%
18,Cc1cccc(C(=O)NNc2ncnc3c2cnn3-c2ccc(C)cc2C)c1,inactive: 106%
19,O=C(O)c1ccc(NC(=O)c2cc(S(=O)(=O)N3CCCCC3)c(Cl)cc2Cl)cc1,inactive: 165%
20,CC(C)c1ccc(S(=O)(=O)c2cnc(SCC(=O)Nc3ccc4c(c3)OCCO4)[nH]c2=O)cc1,inactive: 69%
21,COc1cccc(C(=O)Nc2nnc(S(=O)(=O)N3CCCC3)s2)c1,active: 33%
22,Cc1ccc(Cn2cnc3nc4c(cc3c2=O)CC(C)CC4)cc1 (stereo unspecified),active: 20%
23,CSc1ccc(-c2nc3cccc(C)n3c2Nc2ccc(Cl)cc2)cc1,inactive: 93%

row,Structure (SMILES),survival
1,COc1ccccc1N1C(=O)N(CC(=O)C(C)(C)C)c2ccccc2S1(=O)=O,inactive: 86%
2,O=C(c1cccs1)N(Cc1nc2sc3c(c2c(=O)[nH]1)CCCC3)C1CCCC1,active: 45%
3,COc1ccc(NC(=O)CS(=O)CC(=O)NC2CCCc3ccccc32)cc1 (stereo unspecified),inactive: 60%
4,CN(C)CCNC(=O)c1ccc(-c2nn(C)c(=O)c3ccccc23)cc1,inactive: 136%
5,O=C1CN(C(=O)COc2ccc(Cl)cc2Cl)C(c2ccccc2)c2cc(F)ccc2N1 (stereo unspecified),inactive: 88%
6,CCC(C)NC(=O)CCCc1nnc2n(CC(C)C)c(=O)c3sccc3n12 (stereo unspecified),inactive: 94%
7,CCOc1ccc(NC(=O)c2cc(S(=O)(=O)NC3CCCCCC3)ccc2F)cc1,inactive: 92%
8,Cc1ccccc1-c1noc(-c2ccc(NCc3ccco3)c([N+](=O)[O-])c2)n1,inactive: 73%
9,COc1ccc2c(c1)CCc1c(C(=O)Nc3c(C)nn(Cc4ccccc4)c3C)noc1-2,inactive: 118%
10,CCCNC(=O)CN1C(=O)CSc2ccc(S(=O)(=O)N3CCC(C)CC3)cc21,inactive: 88%
11,Cc1ccc(Nc2c(C(C)C)c(C)c(C#N)c3nc4ccccc4n23)cc1,inactive: 62%
12,O=C(CNCc1ccco1)Nc1ccccc1-n1cccc1,inactive: 94%
13,Cc1cccc(CNC(=O)Cn2ccc3cc(S(=O)(=O)N4CCCCCC4)ccc32)c1,active: -5%
14,COc1cccc(NC(=O)C(Cc2ccccc2)NS(=O)(=O)c2ccc3c(c2)c(=O)n(C)c(=O)n3C)c1 (stereo unspecified),inactive: 79%
15,O=C(CN1C(=O)CSc2ccc(S(=O)(=O)N3CCCC3)cc21)Nc1cccc(Cl)c1,inactive: 96%
16,COc1ccc2c(Sc3ccc(C)cc3)c(C(=O)NC(C)C)[nH]c2c1,inactive: 86%
17,CCOc1ccccc1NC(=O)CSc1nccn1-c1cccc(C)c1,inactive: 86%
18,Cc1ccc(NC(=O)/C=C\C(=O)N(c2ccc(C(C)C)cc2)C(C(=O)NCc2ccco2)c2ccc(F)cc2)cc1 (stereo unspecified),inactive: 80%
19,CCOc1ccc(-n2c(=O)c3c(C)c(C)sc3n(CC(=O)NCCc3ccccc3)c2=O)cc1,inactive: 84%
20,CCOc1ccc(C2CC(=O)c3c([nH]c(C(=O)OCC4CCCCC4)c3C)C2)cc1 (stereo unspecified),inactive: 64%
21,O=c1oc2ccccc2c(N2CCN(c3ccccc3F)CC2)c1CN1CCCC1,inactive: 89%
22,COCCCNC(=O)c1nn(-c2ccc(C)cc2)nc1CO,inactive: 82%
23,O=C(NC1CCCC1)c1ccc2c(=O)n(Cc3ccccc3)c(SCc3cccc(F)c3)nc2c1,inactive: 72%

row,Structure (SMILES),survival
1,CCN(CC)c1ccc(NC(=O)CCCN2C(=O)C(c3ccccc3)Oc3cccnc32)c(C)c1 (stereo unspecified),inactive: 75%
2,CCCCC1C(=O)NC(=Nc2nc(C)c3ccc(OC)cc3n2)NC1=O (stereo unspecified),inactive: 79%
3,CCOc1cc(Cl)c(S(=O)(=O)n2ccnc2)cc1Cl,inactive: 73%
4,Cc1nnc(N2CCC(C(=O)NCCC(C)C)CC2)c2nn(-c3ccc(Cl)cc3)c(C)c12,inactive: 80%
5,CCC(C(=O)N1CCN(c2ccccc2)CC1)n1c(C)c2cnn(-c3ccccc3)c(=O)c2c1C (stereo unspecified),inactive: 72%
6,Cc1cc(C)n(C(C)CC(=O)Nc2ccc(C)c(N(C)C)c2)n1 (stereo unspecified),inactive: 71%
7,C=C(C)CSc1nc(-c2ccccc2)cc(-c2ccc(OC)cc2)c1C#N,inactive: 57%
8,COC(=O)c1ccc(NC(=O)CN2C(=O)CC(c3ccccc3)Sc3ccccc32)cc1 (stereo unspecified),inactive: 93%
9,CC(=O)Nc1ccc(OCC(O)CN2CCN(c3ccc(C)c(Cl)c3)CC2)cc1 (stereo unspecified),inactive: 76%
10,Cc1ccc(N2CC(C(=O)Nc3ccc(N(C)C)cc3)CC2=O)cc1Cl (stereo unspecified),inactive: 92%
11,CSc1ccc(-c2nnc(NC(=O)c3ccc4c(c3)OCCO4)o2)cc1,inactive: 66%
12,Fc1ccccc1N1CCN(c2nc3ccccc3c3nc(-c4ccccc4)nn23)CC1,inactive: 93%
13,N#Cc1cc2c(nc1S(=O)(=O)Cc1ccccc1)CCCC2,inactive: 114%
14,CCc1nc2nc(C)cc(Nc3cccc(C)c3C)n2n1,inactive: 82%
15,CCc1ccc(NC(=O)CN2C(=O)C3(SCC(=O)N3c3ccc(F)c(F)c3)c3ccccc32)cc1 (stereo unspecified),inactive: 99%
16,CC(C)c1ccc(OCC(=O)N(Cc2cccs2)C2CCS(=O)(=O)C2)cc1 (stereo unspecified),active: 51%
17,O=C(CCn1ccc2cc(S(=O)(=O)N3CCCC3)ccc21)NCc1ccccc1Br,inactive: 89%
18,Cc1cccc2cc(CN(C(=O)C3CC3)C3CCCC3)c3nnnn3c12,inactive: 87%
19,O=C(CN1C(=O)c2cccnc2Oc2ccc(Cl)cc21)Nc1cccc(C(F)(F)F)c1,inactive: 74%
20,COc1ccc(C)cc1Nc1cc(C)nc(C)n1,inactive: 66%
21,COc1ccc(N2C(S)=C(C#N)C(=O)NC2c2ccccc2)cc1 (stereo unspecified),inactive: 88%
22,CCOC(=O)CNc1nc(C(C)(C)C)nc2c1nnn2Cc1ccccc1,inactive: 78%
23,CC(C)Oc1ccc(C(=O)Nc2c(C(=O)Nc3cccc(F)c3)oc3ccccc23)cc1,inactive: 70%

row,Structure (SMILES),survival
1,O=C1CSC(=O)N1CCc1ccccc1,inactive: 75%
2,CC(=O)Nc1cccc(-n2cc3c(c2-c2ccccc2Cl)c(=O)n(C)c(=O)n3C)c1,inactive: 95%
3,COc1ccc(-c2cc(C(F)(F)F)nc(SCC(=O)NCC(C)C)n2)cc1OC,inactive: 137%
4,Cc1ccc(CNC(=O)c2ccc(CS(=O)Cc3cccc(Cl)c3)o2)cc1 (stereo unspecified),inactive: 73%
5,Cc1ccn2c(=O)cc(COc3cccc(NC(=O)Nc4cccc(Cl)c4C)c3)nc2c1,inactive: 87%
6,O=C(Cn1cc(S(=O)(=O)c2ccccc2)c(=O)c2cc(Cl)ccc21)Nc1ccc2c(c1)OCO2,inactive: 66%
7,Cc1cc(Nc2cccc(C(F)(F)F)c2)nc2ccc(NC(=O)c3cccc(Cl)c3)cc12,inactive: 92%
8,O=C(NCCCN1CCOCC1)c1ccc2c(c1)N(Cc1cccc(Cl)c1)C(=O)c1ccccc1S2,inactive: 84%
9,O=S(=O)(c1cccc2ccccc12)N1CCN(c2ccc(Cl)c(Cl)c2)CC1,inactive: 155%
10,COc1ccc(NC(C)=O)cc1NC(=O)CN1CCN(c2ccc(F)cc2)CC1,inactive: 84%
11,CCN1CCN(C(=O)C2CCN(Cc3cc(Cl)ccc3O)CC2)CC1,inactive: 100%
12,O=C(Cc1ccc(-c2ccccc2)cc1)NCCS(=O)(=O)N1CCN(c2ccccc2)CC1,inactive: 122%
13,COc1nc(-c2ccccc2)nc(C)c1CC(=O)O,inactive: 108%
14,COc1cc(NC(=O)CSc2ccc(-c3ccccn3)nn2)cc(OC)c1,inactive: 55%
15,C#CC1(OC(C)=O)C(C)CN(C)CC1C (stereo unspecified),inactive: 75%
16,CC(C)c1ccc(S(=O)(=O)N2CCC(N3CCN(Cc4ccccc4)C(=O)C3=O)CC2)cc1,inactive: 66%
17,CC(CCc1ccccc1)NC(=O)Cn1c(=O)nc(-c2ccccc2)c2ccccc21 (stereo unspecified),inactive: 99%
18,Cc1ccc2oc(=O)n(CCCOc3ccccc3Cl)c2c1,active: -4%
19,COc1ccccc1-c1noc(-c2ccc(NCC3CCCO3)c([N+](=O)[O-])c2)n1 (stereo unspecified),inactive: 108%
20,O=C(NCc1cccnc1)c1cn(Cc2ccccc2)nn1,inactive: 84%
21,CCc1cccc(NC(=O)CN(C)S(=O)(=O)c2ccc3c(c2)CCCN3C(C)=O)c1,inactive: 78%
22,COc1ccc(C2=C(Nc3ccc(C)cc3C)c3ccccc3C2=O)cc1,inactive: 71%
